Article PMC9574860, “Chemical Toolkit for PARK7: Potent, Selective, and High-Throughput” (Journal of Medicinal Chemistry, 2022)
The whole screen tested about 7,900 compounds, of which about 400 (5.1%) showed an effect of 50% or more. The list shows a part of the results.

Each compound was assayed against Parkinson's disease protein 7 (PARK7/DJ1) (human, UniProt Q99497) (assay: primary screen, percent inhibition; read as competition with a fluorescent probe by fluorescence polarization; higher = more effect of the substance). Conditions: 100 µM.
Chain of Parkinson's disease protein 7 (PARK7/DJ1) (Q99497 whole entry, looked up, the tested form may be a part): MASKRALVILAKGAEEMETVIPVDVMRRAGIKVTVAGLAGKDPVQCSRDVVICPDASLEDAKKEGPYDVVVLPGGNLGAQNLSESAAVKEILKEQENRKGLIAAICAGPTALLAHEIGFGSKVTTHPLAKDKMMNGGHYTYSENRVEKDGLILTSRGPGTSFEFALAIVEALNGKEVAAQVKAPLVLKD
Procedure, shortened: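 Covalent fragments at 100 μM final were incubated 2 h with 0.2 μM PARK7, then 20 nM probe JYQ-107 added for a further 2 h. Fluorescence polarization read at 480/520 nm; relative FP loss versus reference controls gave remaining enzyme activity.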
`c1ccc(CN2CCC3(CC2)CO3)cc1` gave an Inhibition % of 6.87%. With `CN(C)C(=O)Oc1ccnc2cc(Cl)ccc12` the Inhibition % was 11%. With `Cc1cccc2c(=O)[nH]c(C(Cl)=Cc3ccnn3C)nc12` the Inhibition % was 6.42%. Compound `C=CC(=O)N1CCC(N2CCCC2=O)CC1` has an Inhibition % of 6.03%. `Cl.O=C(CCl)N1CCN(Cc2ccco2)CC1` gave an Inhibition % of 20.2%. With `CC12CO[B-](c3ncccc3Cl)(OC1)OC2.[Li+]` the Inhibition % was 1.28%. `CC(NC(=O)Cn1cnc(C#N)n1)c1ccccc1Cl` (stereo not drawn) gave an Inhibition % of 3.87%. `C=CC(=O)N(C)CC(=O)N[C@H]1CCc2cc(Cl)ccc21` gave an Inhibition % of 9.39%. For `C=CC(=O)NC1CCOC2(CCCC2)C1` (stereo not drawn), the Inhibition % was 4.69%. Work on `C=CC(=O)NC(C(C)C)C1(CO)CC=CC1` (stereo not drawn) yielded an Inhibition % of 16.2%. Compound `O=C(CCl)NCCc1nc2ccccc2s1` has an Inhibition % of 34.5%. `C=CC(=O)NC1CCCN(c2ccc(C)nn2)C1` (stereo not drawn) was tested, and the Inhibition % was 8.27%. `CC(Cn1cccn1)NS(=O)(=O)C=Cc1ccccc1` (stereo not drawn) gave an Inhibition % of 6.68%. `O=C1CCC(=O)N1CCCc1ccc(Cl)cc1` was tested, and the Inhibition % was 3.23%. In the case of `O=C(C1CCOCC1)N1CCC(CS(=O)(=O)F)CC1`, the Inhibition % is reported as 20.1%. With `Cc1cc2nccnc2cc1B1OC(C)(C)C(C)(C)O1` the Inhibition % was 1.47%. `O=C(Oc1ccc2c(c1)CCC2)N1CCOCC1` was tested, and the Inhibition % was 0.585%. Compound `N#Cc1cncc(Cl)n1` has an Inhibition % of 8.35%. Work on `C=CC(=O)Nc1ccc(O)c(C(=O)O)c1` yielded an Inhibition % of 7.4%. Compound `C=CC(=O)N1CCN(c2nccc(C(F)(F)F)n2)CC1` has an Inhibition % of 1.23%. `Clc1ccc(C2CO2)cc1` (stereo not drawn) showed an Inhibition % of 10.2%. For `C=CC(=O)N1CCCC2(CCCC2)CC1`, the Inhibition % was 15.7%. Compound `CC1CN(C(=O)C=Cc2ccnc3ccccc23)CCN1` (stereo not drawn) has an Inhibition % of 5.15%. For `N#Cc1ncccc1-n1cccn1`, the Inhibition % was 4.45%. Work on `C=CC(=O)N1C2CCC1C(CO)C2` (stereo not drawn) yielded an Inhibition % of 5.32%. `CC(C)(C)OC(=O)NCc1cccc(B2OC(C)(C)C(C)(C)O2)c1` was tested, and the Inhibition % was 10.2%. For `C=CC(=O)N1CCS(=O)(=O)CC(C)C1` (stereo not drawn), the Inhibition % was 7.14%. With `C=CC(=O)NCC1CC(C)(C)C1` the Inhibition % was 11.3%. For `N#Cc1ccccc1NS(=O)(=O)C=Cc1ccccc1`, the Inhibition % was 8.21%. For `N#CC1(CCl)CCCC1`, the Inhibition % was 3.71%. For `Cc1cccc2cc(B(O)O)sc12`, the Inhibition % was 37.2%. `C=CC(=O)N1CCCC(S(C)(=O)=O)C1` (stereo not drawn) was tested, and the Inhibition % was 4.21%. Compound `Cc1nn(C)c(C)c1NC(=O)CCl` has an Inhibition % of 11.3%. In the case of `C=CC(=O)NC1COc2c1ccc(C)c2C` (stereo not drawn), the Inhibition % is reported as 6.65%. Work on `N#Cc1c(Cl)nc(N)n1-c1ccccc1` yielded an Inhibition % of 4.52%. In the case of `Cc1cccnc1NC(=O)CCl.Cl`, the Inhibition % is reported as 28.9%. Compound `N#Cc1cc(OC2CCC2)ccn1` has an Inhibition % of 2.96%. Compound `Cc1ncsc1CCCl` has an Inhibition % of 6.62%. `Cc1cc(F)c(C(=O)CCl)cc1F` showed an Inhibition % of 5.49%. Compound `C=CC(=O)NCc1cccc(C(F)(F)F)c1` has an Inhibition % of -0.162%. `N#Cc1nccnc1NC1CC=CCC1` (stereo not drawn) showed an Inhibition % of 2.1%. Compound `COc1cc(C=C(C#N)c2nc(C)cs2)ccc1O` has an Inhibition % of -184%. `Cl.O=C(CCl)Nc1ccc(CN2CCOCC2)cc1` showed an Inhibition % of 40.1%. `O=C(O)CCN1CCSC1=O` was tested, and the Inhibition % was 2.95%. `O=C(C=Cc1ccncc1)N1CCN(c2nccs2)CC1` gave an Inhibition % of 14.9%. In the case of `Cn1cc(CN2C[C@H](F)C[C@H]2C(N)=O)cc1C#N`, the Inhibition % is reported as 7.61%. `Cc1ccc(S(=O)(=O)n2nc(C)cc2C)c(C)c1` gave an Inhibition % of 5.09%. `CS(=O)(=O)OC1CCOC2(CCCC2)C1` (stereo not drawn) was tested, and the Inhibition % was 9.92%. `C=CC(=O)Nc1ccc2c(c1)NC(=O)CO2` gave an Inhibition % of 7.6%. `NC(=O)c1ccccc1NS(=O)(=O)C=Cc1ccccc1` gave an Inhibition % of 4.95%. Compound `N#CC(=Cc1ccsc1)C(=O)NCc1ccccc1` has an Inhibition % of 18%. `C=CC(=O)NC(C)(C)C1CCCCO1` (stereo not drawn) showed an Inhibition % of 9.38%. For `COC(=O)C1CC(S(=O)(=O)F)CN1C(=O)c1cccs1` (stereo not drawn), the Inhibition % was 11%. `OC1(CC2CO2)CCC1` (stereo not drawn) showed an Inhibition % of 5.65%. `C=CC(=O)NCC1CC12CCOCC2` (stereo not drawn) was tested, and the Inhibition % was 10.7%. For `Cc1nc(C=CC(=O)N2CCOCC2)cs1`, the Inhibition % was -0.955%. Compound `O=c1oc2cc(OCC3CO3)ccc2c2c1CCC2` (stereo not drawn) has an Inhibition % of 10.6%. For `N#Cc1ncn(CC(=O)N2CCCCCC2)n1`, the Inhibition % was 13.4%. With `CCc1ccc(C(C)NC(=O)Cn2cnc(C#N)n2)cc1` (stereo not drawn) the Inhibition % was 1.36%. `Cc1cccc(NC(=O)CN2CCSC2=O)c1` was tested, and the Inhibition % was 7.14%. Compound `C=CC(=O)N1CCC[C@@H]1CS(C)(=O)=O` has an Inhibition % of 8.71%. In the case of `CC(C)C(C)NS(=O)(=O)C=Cc1ccccc1` (stereo not drawn), the Inhibition % is reported as 5.76%. `Cn1c(=O)n(CCS(=O)(=O)F)c2cnccc21` gave an Inhibition % of 16.5%. `NC(=O)CCN(C(=O)CCl)c1ccccc1` gave an Inhibition % of 67.4%. Work on `CN1C2CCC1CC(Nc1cccnc1C#N)C2` (stereo not drawn) yielded an Inhibition % of 5.48%. In the case of `C=CC(=O)N(CC)C1CCS(=O)(=O)C1` (stereo not drawn), the Inhibition % is reported as -4.06%. `C#CC(=O)Nc1cc2ccccc2cc1C(=O)O` was tested, and the Inhibition % was 29.8%. In the case of `CCc1[nH]nc(NC(=O)c2cccnc2S)c1C`, the Inhibition % is reported as 3.97%. In the case of `O=C(CCl)Nc1ccc(F)c(F)c1F`, the Inhibition % is reported as 32.8%. For `CCOc1ccc(S(=O)(=O)n2ccc(C)n2)cc1C`, the Inhibition % was 2.71%. `Cc1cc(C)n(S(=O)(=O)c2ccc(C)c(C)c2)n1` gave an Inhibition % of 3.92%. With `CC(C)OCCCn1c(S)nc2ccccc2c1=O` the Inhibition % was 3.79%. In the case of `Cc1cc(NC(=O)CCl)on1`, the Inhibition % is reported as 21.5%. In the case of `CN(Cc1cc(F)c(F)c(F)c1)c1nccnc1C#N`, the Inhibition % is reported as 13.9%. `c1nsnc1OCC1CO1` (stereo not drawn) was tested, and the Inhibition % was 8.09%. In the case of `N#CC(=Cc1ccc(O)cc1)C(=O)N1CCCC1`, the Inhibition % is reported as 9.17%. Work on `Cc1cc(-n2c(C)cc(C=C(C#N)C(=O)O)c2C)no1` yielded an Inhibition % of 7.71%. Work on `OB(O)c1ccc(OCC2CCCCO2)cc1` (stereo not drawn) yielded an Inhibition % of 27.9%. `C=CC(=O)Nc1cnc2onc(C)c2c1` gave an Inhibition % of 10.7%. `CC1CN(C(=O)CN2CCSC2=O)CCO1` (stereo not drawn) showed an Inhibition % of 0.792%. In the case of `C=CC(=O)Nc1ccc(C2CC2)nn1`, the Inhibition % is reported as 9.64%. With `Cc1csc(C(C#N)=Cc2cccc3c2OCCCO3)n1` the Inhibition % was 1.3%. With `Cc1n[nH]c(C)c1B1OC(C)(C)C(C)(C)O1` the Inhibition % was 4.89%. In the case of `CN(CC(=O)O)S(=O)(=O)C=Cc1ccccc1`, the Inhibition % is reported as -4.62%. `C=CC(=O)N(C)CC(=O)Nc1cc(C)on1` gave an Inhibition % of 7.52%. Compound `CC(C)NC(=O)C(C#N)=Cc1ccccc1` has an Inhibition % of 10.9%. With `O=S(=O)(F)CCc1ccccc1` the Inhibition % was 4.21%. For `CN1Cc2cc(C(=O)CCl)ccc2NC1=O`, the Inhibition % was 11.5%. `CCC(=O)N1CCCN(c2ccc(C#N)nc2)CC1` was tested, and the Inhibition % was -4.41%. For `O=C(CCl)c1ccc(F)c(Cl)c1`, the Inhibition % was 99.2%. `Cc1cc(C)n(-c2ccc(B3OC(C)(C)C(C)(C)O3)cc2)n1` gave an Inhibition % of 10.1%. In the case of `C=CC(=O)N1CCC(N2CCS(=O)(=O)CC2)CC1`, the Inhibition % is reported as 13.1%. `CC1(C)OB(c2ccc(C#N)s2)OC1(C)C` showed an Inhibition % of 6.33%. `COc1ccccc1NS(=O)(=O)C=Cc1ccccc1` was tested, and the Inhibition % was 7.7%. Compound `C=CC(=O)N1CCCc2cc(F)ccc21` has an Inhibition % of 16.1%. `O=C(CCl)c1ccc(NC(=O)c2ccco2)cc1` was tested, and the Inhibition % was 90.6%. Compound `Cc1nnc(NC(=O)CN2CCSC2=O)s1` has an Inhibition % of 3.04%. `CC1(C)OB(c2cccc(-n3ccnn3)c2)OC1(C)C` gave an Inhibition % of 6.79%. `CCc1cccc(N(C#N)CC(=O)N2CCNC(=O)C2)c1` showed an Inhibition % of -1.16%. In the case of `C=CC(=O)NC(C)(C)c1noc(C(C)(C)C)n1`, the Inhibition % is reported as 17.1%. In the case of `CC(=O)N(c1cccc(Cl)c1)C1C=CS(=O)(=O)C1` (stereo not drawn), the Inhibition % is reported as 14.6%. In the case of `Cc1nn(C)c(Cl)c1C=CC(=O)N1CCNC(C)C1.Cl` (stereo not drawn), the Inhibition % is reported as 11%. `O=C(Nc1nccs1)Oc1ccccc1` was tested, and the Inhibition % was -1.32%. For `C=CC(=O)N1C[C@@H]2[C@@H](COC)[C@@H]2C1`, the Inhibition % was 5.89%. Work on `O=C1Cc2cc(C(=O)CCl)ccc2N1` yielded an Inhibition % of 81.4%. `CC(C)C1NC(=O)C12CCCC2` (stereo not drawn) showed an Inhibition % of 5.46%. With `C=CC(=O)N(C)C1CCCOC1` (stereo not drawn) the Inhibition % was 13%. Compound `COc1ccc(NC(=O)CCl)cc1OC` has an Inhibition % of 17.1%. `NC(=O)CSc1ccccc1NC(=O)CCl` showed an Inhibition % of 9.99%. `C=CC(=O)N1CC2(CC2)c2ccccc21` gave an Inhibition % of 6.78%. For `N#CC=C1SCC(=O)N1CC(O)c1ccc(Cl)cc1` (stereo not drawn), the Inhibition % was 6.45%. `C=CC(=O)NC1CCCc2c1cnn2Cc1ccccc1` (stereo not drawn) showed an Inhibition % of 12.5%. In the case of `CC(C)NC(=O)C(C#N)=Cc1ccccc1Cl`, the Inhibition % is reported as 6.2%. In the case of `C=CC(=O)NC1CCC(=O)NC12CCC2` (stereo not drawn), the Inhibition % is reported as 7%. Work on `O=C(N[C@H]1CC[C@H](CO)CC1)c1cccnc1S` yielded an Inhibition % of 5.7%. With `Cc1ncc(CN(C)S(=O)(=O)C=Cc2ccccc2)s1` the Inhibition % was 9.84%. `Cn1c(N)c(C(=O)CCl)c(=O)n(C)c1=O` showed an Inhibition % of 30.7%. Compound `CC(NC(=O)CCl)C1CC1` (stereo not drawn) has an Inhibition % of 4.02%. `CC1CCN(C(=O)NCCN2C(=O)CCC2=O)CC1` was tested, and the Inhibition % was 0.99%. `N#CC(C(N)=O)=C1CCCCC1` showed an Inhibition % of 1.53%. In the case of `CC(C)CN1CCN(c2ccc(C#N)nc2)CC1`, the Inhibition % is reported as 2.57%. `CCOc1cc(S(=O)(=O)n2cccn2)c(C)cc1C` gave an Inhibition % of 0.108%. For `O=C(CCl)NCCc1ccccc1`, the Inhibition % was 17.9%. Work on `N#CSc1ccc(NC(=O)CCl)c(Cl)c1` yielded an Inhibition % of 55.8%. For `O=C1CCC(CN2CCc3[nH]c4ccc(F)cc4c3C2)O1` (stereo not drawn), the Inhibition % was 21.1%. Work on `COC(=O)c1c(NC(=O)CCl)sc(C)c1C` yielded an Inhibition % of 10.8%.
